Assay results from paper PMC5179494 (Molecular Cell, 2016).

Molecular target: T1, TaqDarG-macro (Thermus aquaticus, UniProt P0DV57)
T1 construct: gene darG
Details: active site; product complex

T1 sequence (P0DV57 1-155): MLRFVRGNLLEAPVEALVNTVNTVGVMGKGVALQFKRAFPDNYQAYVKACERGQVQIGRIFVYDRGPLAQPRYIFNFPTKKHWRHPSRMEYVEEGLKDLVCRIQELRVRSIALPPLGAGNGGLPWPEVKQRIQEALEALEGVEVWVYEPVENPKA

Nc1ncnc2c1ncn2[C@@H]1O[C@H](COP(=O)(O)OP(=O)(O)OC[C@H]2OC(O)[C@H](O)[C@@H]2O)[C@@H](O)[C@H]1O (stereo partly shown) [ADPr]
X-ray crystal structure, 2.50 A: ADPr moiety in ADPr-TaqDarG-macro forms hydrogen bonds with N8, L9 T20, N22
